In all, about 44,000 compounds went through this assay and about 340 (0.77%) were called active. Another 5% or so got no clear call; they are omitted. The call rests on the fitted dose curve; in most records, active means well fitted inhibition curve with a large enough effect; inconclusive means small, poorly fitted or top-dose-only effect; inactive means flat fitted curve, though single readings scatter. The list shows a part of the results.
Test: Acumen qHTS Assay for Inhibitors of the mTORC1 Signaling Pathway in MEF (Tsc2-/-, p53-/-) Cells: Sytravon;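 further: plate controls were DMSO for no effect and rapamycin for full effect; nearly all actives have a fitted effect of over 50% in size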
Settings: phospho-rpS6 immunofluorescence/PI, 24 h; series mostly up to 38.3 µM; activity change, negative = inhibition: at the top concentration
Summary of the method: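 Cell-based qHTS: Tsc2-/- p53-/- MEF, 24 h cpd, 37 °C; fix/perm, anti-phospho-S6 Alexa-488 + PI; Acumen 488 nm scan; pS6/PI ratio, % positive cells; rapamycin 7.5 nM = inhibition ref; PI count = viability.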

Activity change, negative = inhibition, inactive:
Cc1ccc(C(=O)O)cc1NC(=O)c1nsc2ccccc12 -5.71%
COc1ccc(CCNC(=O)CN2C(=O)COc3ccc(S(=O)(=O)N4CCCC4)cc32)cc1OC -1.46%
Cc1ccc(Cl)cc1N1CCN(c2nc3ccccc3c3nc(-c4cccnc4)nn23)CC1 -3.69%
Cc1ccc(CNC(=O)c2cc(-c3ccc(C)c(C)c3)nc3ccccc23)cc1 4.96%
Cc1cc(Cl)ccc1NC(=O)CSc1nc2c(c(=O)[nH]1)CCC2 -7.63%
COC(=O)c1sc(N2C(=O)c3oc4ccc(C)cc4c(=O)c3C2c2ccc(OC)cc2)nc1C (centres undefined) 9.18%
CCCOc1ccc(Oc2nc(NC)nc(N3CCOCC3)n2)nn1 1.96%
Cc1ccc(NC(=O)C(=O)NCC(c2cccnc2)N2CCN(Cc3ccccc3)CC2)cc1Cl (centres undefined) 11.9%
CCOc1ccc(CCNC(=O)c2cnc3sc(N4CCCCC4)nn3c2=O)cc1 5.61%
COC(=O)Cc1c(C)nc2nc(-c3ccc(C)cc3)[nH]n2c1=O -11.1%
CCOc1cccc2sc(NC(=O)CS(=O)(=O)c3ccc(C)cc3)nc12 -3.06%
CCN(Cc1ccccc1)S(=O)(=O)c1ccc(F)c(C(=O)Nc2cc(C(F)(F)F)ccc2Cl)c1 -0.219%
COc1ccc(N2C(=O)CSC23C(=O)N(CC(N)=O)c2ccccc23)cc1 (centres undefined) 2.81%
COc1ccc(-n2c(=O)c3sc4ccccc4c3n(CC(=O)NC3CCCCC3)c2=O)cc1 -12.8%
CC(C)c1ccc(N2C(=O)N(Cc3ccccc3Cl)c3ccccc3S2(=O)=O)cc1 -8.21%
O=C(Nc1cc(C(F)(F)F)ccc1Cl)c1cnn(-c2ccccc2)c1-n1cccc1 -1.21%
COC(=O)c1ccc([C@H]2Nc3ccc(S(=O)(=O)Nc4cccc(C)c4)cc3[C@H]3C=CC[C@H]32)cc1 1%
COCCNC(=O)CCCn1c(SCc2ccccc2Cl)nc2c(sc3ccccc32)c1=O 0%
COC(=O)c1c(-c2ccccc2)c(-c2ccccc2)nn(C)c1=O 1.93%
CCCCOc1ccc(C(=O)N(Cc2ccco2)Cc2ccco2)cc1 0.766%
COc1ccccc1C1CC(=O)N(c2cccc(C(F)(F)F)c2)C2=C1C(=O)OC2 (centres undefined) 5%
CCC(=O)Nc1nnc2n1CCS2 -1.55%
Cc1cccc(N(CC(N)=O)C2SC(=O)N(Cc3cccc(C(=O)O)c3)C2=O)c1 (centres undefined) -2.2%
Cc1cc(Br)cc2c(C(=O)OCC(=O)c3ccccc3)cc(-c3ccccc3)nc12 3.08%
Cc1c(-c2nnc(SCC(=O)Nc3ccc(Cl)cc3)o2)nnn1-c1ccc(F)cc1 4.07%
COc1ccccc1N1CCN(C(=O)c2cnc(N3CCOCC3)c3ccccc23)CC1 -12.5%
Cc1cc(CN2CCN(c3ccc(F)cc3)CC2)cs1 3.15%
O=c1[nH]c(SCc2cccc(Cl)c2)nc2c1CCC2 0.205%
CCN1CCSc2ccc(C(=O)NCc3ccccc3Br)cc21 -9.91%
COc1ccc(Cn2c(CO)cnc2SCc2cccc(C)c2)cc1 0.549%
COc1ccccc1N1CCN(C(=O)CCS(=O)(=O)c2cc(Br)cc3c2N(C(C)=O)CC3)CC1 0.68%
O=C(COc1ccc(Cl)cc1)NCC(c1ccco1)S(=O)(=O)c1ccc(Cl)cc1 (centres undefined) -5.87%
Cc1cc(C)c2oc(-c3ccc(C)c(NC(=O)/C=C/c4ccco4)c3)nc2c1 -0.434%
COc1ccc(CNC(=O)c2cc3c(=O)n(C)c4ccccc4c3n2C)c(OC)c1 2%
Cc1nc(N2CCCC2)ncc1C(=O)N1CCN(c2ccccc2F)CC1 9.98%
CCS(=O)(=O)c1c(Nc2cc(C)ccc2C)sc(C(=O)c2ccccc2)c1N 0.923%
Cc1ccc(C(=O)n2nc(C)c(S(=O)(=O)N3CCOCC3)c2C)cc1C 0.896%
CC1=C(C(=O)Nc2ccccc2)C(c2cc(Br)ccc2F)n2ncc(C(=O)Nc3ccccc3)c2N1 (centres undefined) -5.49%
COc1cccc(-c2nc(S(=O)(=O)c3ccccc3)c(N3CCC(C)CC3)o2)c1 -20.5%
Cc1ccc(NC(=O)c2nnn(CC(=O)Nc3ccc(C)c(Cl)c3)c2N)c(C)c1 1.65%
O=c1c2ccccc2nc(-c2ccc(Cl)cc2)n1CCCOc1ccccc1F 2.91%
COc1cc(C(=O)NCCc2csc3nc(-c4ccccc4C)nn23)cc(OC)c1OC -14%
COc1ccc(NC(=O)Cn2c(=O)n(-c3ccc(OC)cc3)c(=O)c3ccc(C(=O)NCc4ccc(C)cc4)cc32)cc1 -19.4%
CC(C)c1ccc(NC(=O)CC2Oc3ccccc3NC2=O)cc1 (centres undefined) -0.207%
Cc1cc(OCC(=O)N(Cc2ccc(N(C)C)cc2)C2CCS(=O)(=O)C2)cc(C)c1Cl (centres undefined) 3.53%
Cc1ccc(Cl)cc1NC(=O)CN1C(=O)COc2ccc(S(=O)(=O)N3CCCCCC3)cc21 -2.8%
COc1ccccc1CCNC(=O)CCc1c(C)c2cc3c(C)c(C)oc3cc2oc1=O -7.04%
Cc1ccc(NC(=O)C(=O)NCC(c2ccc3c(c2)OCO3)N2CCN(c3ccccc3)CC2)cc1 (centres undefined) -7.99%
O=C(c1cccs1)c1cn(CCOc2ccccc2Cl)c2ccccc12 -13.9%
CCN(C(=O)C(Cc1ccccc1)NS(=O)(=O)c1cccc2nsnc12)c1ccccc1 (centres undefined) -13.9%
Cc1ccc(C)c(NC(=O)CCc2c(C)nn(-c3ccc(N4CCCC4)nn3)c2C)c1 -26%
CCOc1ccc(CCNC(=O)c2ccc(-c3nc(COc4ccc(C)cc4)c(C)o3)cc2)cc1 0.61%
COc1ccc(NC(=O)CSc2nc(-c3ccc(F)cc3)c3cccc(C)c3n2)cc1 -1.78%
COCCCn1c(SCC(=O)Nc2ccccc2OC)nc2c(sc3ccccc32)c1=O -2.43%
COc1ccc(CCNC(=O)c2ccc(Cn3c(=O)c4ccccc4n(Cc4ccc(C)cc4)c3=O)cc2)cc1OC -1.26%
COc1ccc(C2C(=O)N(C3CCCCCC3)CC(=O)N2CCc2ccc(OC)c(OC)c2)cc1 (centres undefined) -13.2%
Cc1ccc2nc(CN3CCN(C(=O)Nc4ccc(C)c(F)c4)CC3)oc2c1 0.754%
CCCCN(C)CCCNC(=O)c1cc(-c2cccnc2)nc2ccccc12 0.494%
CCC1=Nc2cc(C(=O)NCc3ccc(C)cc3)ccc2Sc2ccc(C)cc21 -16.4%
CCOC(=O)C1CCCN(C(=O)Cn2ncn3c(cc4sc(CC)cc43)c2=O)C1 (centres undefined) -2.67%
COC(=O)c1ccc(OC)c(Cn2c(=O)n(-c3cccc(Cl)c3)c(=O)c3c4c(sc32)CN(C(C)=O)CC4)c1 5.19%
COc1ccc(-c2oc3ncn4nc(COc5ccccc5C)nc4c3c2-c2ccc(OC)cc2)cc1 7.47%
COc1cc(OC)c(NC(=O)Cc2ccc(-n3c(C)nc4cccnc43)cc2)cc1Cl -10.5%
O=C(Nc1ccc(F)cc1)[C@@H](c1ccccc1)N1Cc2ccccc2C1=O -5.31%
COc1ccc(-c2noc(N3CCC(C(=O)N(C)c4cc(Cl)ccc4OC)CC3)n2)cc1 -4.2%
COc1ccc(CCNC(=O)CCc2cn(Cc3ccc(C)cc3)c3ccccc23)c(OC)c1OC -17.4%
CCOc1cc2[nH]c(=O)n(CCCCC(=O)N3CCN(c4ccccc4)CC3)c(=O)c2cc1OCC -1.88%
CCC(C)NC(=O)c1[nH]c2cc(C)ccc2c1Sc1ccc(Cl)cc1 (centres undefined) 1.37%
Cc1cccc(C)c1OCC(=O)Nc1c(C(=O)c2ccc(Br)cc2)oc2ccccc12 -2.2%
COc1ccc2oc(=O)c(-c3cn4c(n3)sc3cc(F)ccc34)cc2c1 -4.72%
COc1ccc2c(CNCCc3cccs3)c(C(=O)O)n(Cc3ccccc3C)c2c1 -3.18%
O=C(CN1C(=O)COc2ccc(S(=O)(=O)N3CCCCCC3)cc21)N1CCN(c2cccc(C(F)(F)F)c2)CC1 -2.4%
Cc1cccc(N2CCN(C(=O)C3CCN(S(=O)(=O)c4c(C)noc4C)CC3)CC2)c1C -5.42%
CCCOc1ccc(-c2nc(N3CCC(C)CC3)c3ccccc3n2)cc1 1.12%
CCCn1c2ccccc2c2cnn(CC(=O)N(Cc3ccccc3)C(C)C)c(=O)c21 -5.44%
CCCCOc1ccc(S(=O)(=O)NCc2csc(-c3ccc(OC)cc3)n2)cc1 -0.103%
COc1ccc(CC(=O)NCC(c2cccs2)S(=O)(=O)c2ccc(Cl)cc2)cc1 (centres undefined) -4.84%
CCC(C(=O)Nc1cc(OC)ccc1OC)n1c(C)c2cnn(-c3ccccc3)c(=O)c2c1C (centres undefined) -20%
Cc1c(C(=O)N2CCCC2)oc2c1-c1nn(CC(=O)NC(C)c3ccccc3)cc1CC2 (centres undefined) -16.9%
Cc1ccc(S(=O)(=O)NCCc2nnc3ccc(SCc4ccc(F)cc4)nn23)cc1 -2.24%
Cc1cc(F)ccc1NC(=O)c1ccc2nc(Cc3ccccc3)oc2c1 -4.23%
COc1ccc(-n2ccn(CC(=O)NCc3ccc(C)cc3)c(=O)c2=O)cc1OC 5.29%
COc1ccccc1Cn1cc(C(=O)c2ccc(F)cc2)c(=O)c2cc3c(cc21)OCO3 -7.86%
Cc1ccc(Nc2ncc(C(=O)N3CCN(c4cccc(Cl)c4)CC3)c3ccccc23)cc1Cl 0.326%
Cc1ccc2oc(C(=O)Nc3cccc(-c4nc5ccccc5s4)c3)c(C)c2c1 -0.427%
Cc1ccc(C)c(N2CCN(C(=O)c3cc(S(=O)(=O)N4CCC(C)CC4)cn3C)CC2)c1 4.12%
COc1ccccc1C(=O)c1cn(CC(=O)Nc2ccccc2F)c2nc(C)ccc2c1=O 9.37%
COc1cc(NC(=O)CN2CCCN(S(=O)(=O)c3ccc(F)cc3)CC2)cc(OC)c1 -0.448%
C=CCc1cccc2cc(-c3nc4ccc(C(=O)O)cc4[nH]3)c(=O)oc12 -3.81%
CCOC(=O)c1cc(S(=O)(=O)Nc2c(C)cc(C)cc2C)[nH]n1 -4.99%
Cc1ccc2nc(-c3ccc(NC(=O)COc4ccccc4C(C)(C)C)cc3)sc2c1 2.73%
CCOC(=O)N1CCN(c2ncc3c(n2)CC(c2ccc(Cl)cc2)CC3=O)CC1 (centres undefined) 5.08%
CC(=O)NC(C)c1nc2ccccc2n1Cc1ccccc1Cl (centres undefined) -1.86%
Cc1ccc(C)c(NC(=O)C2CCCN2S(=O)(=O)c2ccc3c(c2)n(C)c(=O)c(=O)n3C)c1 (centres undefined) -11%
